From article PMC4336329 (PLoS ONE, 2015)
Hit rate of the full screen: of about 310,000 compounds, about 14,000 (4.5%) showed an effect of 50% or more. Effects have a minus sign here. The list shows a part of the results.

target: human ether-à-go-go-related gene (hERG) potassium channel (human, UniProt Q12809); assay: primary screen, population patch clamp on CHO cells stably expressing hERG
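Also: peak tail current of the secondary pulse compared with the same well before compound.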

Sequence of human ether-à-go-go-related gene (hERG) potassium channel (Q12809 whole entry, looked up): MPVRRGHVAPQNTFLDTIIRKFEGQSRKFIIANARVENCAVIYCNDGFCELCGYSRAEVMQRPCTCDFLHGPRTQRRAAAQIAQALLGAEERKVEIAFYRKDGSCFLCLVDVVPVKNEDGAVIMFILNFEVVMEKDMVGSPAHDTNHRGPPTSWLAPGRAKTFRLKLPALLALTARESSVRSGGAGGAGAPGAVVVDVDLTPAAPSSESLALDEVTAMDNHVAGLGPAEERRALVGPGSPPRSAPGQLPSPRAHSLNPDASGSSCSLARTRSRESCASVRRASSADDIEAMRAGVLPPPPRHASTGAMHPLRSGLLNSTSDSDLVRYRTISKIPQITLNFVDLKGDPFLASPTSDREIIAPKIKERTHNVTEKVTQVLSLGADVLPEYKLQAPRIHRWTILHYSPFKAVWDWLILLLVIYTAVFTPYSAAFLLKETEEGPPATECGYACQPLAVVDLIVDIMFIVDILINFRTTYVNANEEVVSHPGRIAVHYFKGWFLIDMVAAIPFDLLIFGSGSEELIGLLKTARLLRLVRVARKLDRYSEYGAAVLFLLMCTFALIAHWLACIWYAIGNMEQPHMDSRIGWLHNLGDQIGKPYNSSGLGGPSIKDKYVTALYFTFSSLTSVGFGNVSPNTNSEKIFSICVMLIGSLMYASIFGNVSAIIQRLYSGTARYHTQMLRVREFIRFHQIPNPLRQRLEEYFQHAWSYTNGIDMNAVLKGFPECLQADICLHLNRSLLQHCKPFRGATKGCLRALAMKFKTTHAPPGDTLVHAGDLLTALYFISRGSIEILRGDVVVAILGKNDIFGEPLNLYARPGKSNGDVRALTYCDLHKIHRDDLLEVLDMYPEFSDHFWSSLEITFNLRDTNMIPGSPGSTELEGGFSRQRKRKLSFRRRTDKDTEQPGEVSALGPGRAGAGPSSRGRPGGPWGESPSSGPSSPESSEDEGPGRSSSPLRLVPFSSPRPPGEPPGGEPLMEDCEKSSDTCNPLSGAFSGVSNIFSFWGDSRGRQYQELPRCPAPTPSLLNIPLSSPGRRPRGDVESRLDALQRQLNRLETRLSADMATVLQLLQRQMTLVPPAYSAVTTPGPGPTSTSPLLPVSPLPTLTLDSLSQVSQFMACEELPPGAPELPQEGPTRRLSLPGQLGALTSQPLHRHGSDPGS

Point of comparison: `Cn1c(N)c(C(=O)COC(=O)c2cc(-c3ccccc3)nc3ccccc23)c(=O)n(C)c1=O`, “hERG current change (%, negative = inhibition) at 10uM” value 7.78%. Against it:
- CC(=O)Nc1ccc(S(=O)(=O)N2CCOCC2)cc1 — lower, 7.69%
- CC(NS(=O)(=O)c1ccc(NC(=O)N2CCCCC2)cc1)c1ccccc1 (centres unmarked) — lower, 3.56%
- COC(=O)c1ccc(/C=N/NC(=O)C2CC(=O)N(c3ccc(OC)cc3)C2)cc1 (centres unmarked) — lower, -16.2%
- COc1ccccc1/C(C)=N/NC(=S)NCc1ccccc1 — lower, -7.92%
- O=C(c1ccccc1)N1CCC2(CC1)OCCO2 — higher, 9.77%
- C=C[C@@H](C)N(Cc1ccc(OC)cc1)S(=O)(=O)N(Cc1ccccc1)[C@H](C=C)C(C)C — lower, 3.31%
- CC(C)c1ccc(NC2CCCN(C(=O)CN3C(=O)CSC3=O)C2)cc1 (centres unmarked) — higher, 19.8%
- COc1cc2c(cc1OC)CN(C(=O)c1cc(S(=O)(=O)N3CCCCC3)ccc1Cl)CC2 — lower, -20.1%
- N#CCSc1nc2cc(C(=O)N3CCCC3)ccc2c(=O)n1Cc1ccccc1 — lower, -14.7%
- CCCc1cc(=O)oc2c(CN3CCCC3)c(O)c(Cl)cc12 — lower, -28%
- CC1CCCN(C(=S)Nc2ccc(F)cc2)C1 (centres unmarked) — higher, 8.36%
- CC(C)NC[C@H](O)COc1cccc2[nH]ccc12 — higher, 8.94%
- CC(C)Oc1ccc(CCC(=O)NNC(=O)c2ccccc2C(=O)O)cc1 — higher, 25.4%
- COC(=O)c1ccc(C2/C(=C(/O)c3ccc(OC)cc3)C(=O)C(=O)N2Cc2ccco2)cc1 (centres unmarked) — lower, 4.85%
- Cc1nc2sc3c(c2c(=O)o1)CC(C)(C)OC3 — higher, 22.4%
- O=C(NCc1ccco1)C1CC(c2cc(C(F)(F)F)cc(C(F)(F)F)c2)=NO1 (centres unmarked) — lower, 3.12%
- CCN(CC)CCNc1nc2c(c(=O)n(C)c(=O)n2C)n1C/C=C(/C)Cl — lower, -58.9%
- Cc1cc(C)n(C(=O)CCNC(=O)c2ccccc2Br)n1 — higher, 12%
- Cc1occc1C(=O)N/N=C/c1ccc(OCc2ccccc2)cc1 — higher, 10.3%
- CC(NC(=O)c1ccc(N(C)C)cc1)c1ccc(F)cc1 (centres unmarked) — lower, -2.12%
- NC(=O)C1=C[C@H](c2ccc(Br)cc2)C[C@H](OCc2ccc(CO)cc2)O1 — lower, -20.6%
- Cl.c1ccc(-c2nc(NCc3cccnc3)c3oc4ccccc4c3n2)cc1 — lower, -0.432%
- COc1ccc(CCn2nnnc2C(CC(C)C)N2CCC(C(N)=O)CC2)cc1OC (centres unmarked) — lower, -9.9%
- Nc1ccccc1S(=O)(=O)NC1=NCCCCC1 — higher, 14.8%
- COc1ccc(C(c2nnnn2Cc2cccs2)N2CCN(c3ccccc3F)CC2)cc1 (centres unmarked) — lower, 4.04%
- C/C(CC(=O)Nc1cc(Cl)ccc1Cl)=N\NC(=O)COc1cccc(C)c1 — higher, 10.7%
- O=C(O)c1cnn(-c2ccccc2)c1-c1ccccc1 — higher, 11.6%
- CCC(C)C(=O)Nc1ncc2c(n1)CC(c1cccs1)CC2=O (centres unmarked) — lower, -32.5%
- COc1ccc(C(=O)NCc2ccc(Cl)c(Cl)c2)cc1OC — lower, -25.4%
- CCOC(=O)c1[nH]cnc1C(=O)Nc1ccc([N+](=O)[O-])cc1 — lower, 4.57%
- CCC1CCCCN1CC(=O)Nc1cc(C)nn1-c1nc(C)cc(C)n1 (centres unmarked) — lower, -58.8%
- CC1CCC(NC(=O)CN2C(=O)NC3(CCCCC3C)C2=O)CC1 (centres unmarked) — lower, 4.52%
- Cc1cc(C(F)(F)F)cc(NNC(=O)NC(=O)c2ccccc2Cl)n1 — higher, 11.1%
- Cc1ccc(S(=O)(=O)N2CCOCC2)cc1NC(=O)COC(=O)CSc1ccc(Br)cc1C — lower, -21.5%
- CC(C)c1nnc(SCC(=O)N2CCc3ccccc32)n1C — lower, -2.76%
- CS(=O)(=O)n1nc(OC(=O)c2cc(Br)ccc2Cl)cc1N — higher, 14.1%
- COCC(=O)Nc1ccccc1C(=O)Nc1ccc(OC)cc1 — lower, -7.96%
- CCc1ccc(NC(=O)NC(C)c2ccc3c(c2)OCO3)cc1 (centres unmarked) — lower, -2.27%
- CCOc1ccc(OCCC(=O)OCC(=O)NC2CCCC2)cc1 — higher, 17.9%
- CC(C)(C)[C@H]1C=C(C(=O)N2CCOCC2)O[C@@H](OCCCCO)C1 — higher, 15.8%
- Cc1cc(=O)[nH]c(/N=C(\N)Nc2ccc3c(c2)OCCO3)n1 — higher, 7.98%
- CC(=O)NC12CC3CC(C1)CC(C(=O)OCC(=O)NC(=O)c1cccn1C)(C3)C2 — lower, -3.61%
- COc1ccc(/C=C/C(=O)NCCN=C2NS(=O)(=O)c3ccccc32)cc1 — lower, -9.83%
